Data on 56 compounds can be found in PubChem BioAssay AID463173 (ICCB-Longwood Screening Facility, Harvard Medical School, 2010).

Out of some 52,000 compounds screened, about 1,700 (3.3%) were called active. Rule as the data show it: active = survival mostly below about 52% (no sharp cut-off); inactive = mostly above about 56%. The list shows a part of the results.

The experiment relates to Wild type. The experiment can be described thus: S. aureus survival, RN4220 and DeltatarO strains – OD600, teichoic acid synthesis inhibitors, primary screen (AID 463173). The conditions noted are these: S. aureus RN4220 wild type/DeltatarO growth, OD600, 18 h, hits give low values, screened at 18.75 µg/mL (by protocol).
As for `CCOc1ccc(C2C(C(=O)OC)=C(C)NC3=C2C(=O)c2ccccc23)cc1OC` (stereo unspecified), the survival is inactive: 68%.

Take `CCc1ccc(NC(=O)C2CCCN(c3nn4cc(-c5ccc(OC)cc5)nc4s3)C2)cc1` (stereo unspecified): the survival is inactive: 73%. Next, `Cc1ccc(NC(=O)c2c(C)oc3ccc(O)c(CN4CCCC4)c23)c(C)c1`: inactive: 85%. Take `Cc1ccc2onc(CNC(=O)Nc3ccccc3C#N)c2c1`: the survival is inactive: 85%.

Regarding `O=C(NCC(c1ccc2c(c1)OCO2)N1CCN(c2ccc(F)cc2)CC1)c1cccc([N+](=O)[O-])c1` (stereo unspecified), the survival was inactive: 83%. The result for `COc1cccc(CNC(=O)CCc2c(C)nc3c(c2C)c(=O)n(C)c(=O)n3C)c1` reads inactive: 87%; that for `CCc1ccccc1NC(=O)CSc1ncccc1C(=O)O`, inactive: 89%; that for `O=C(CN(Cc1ccco1)C(=O)c1nsc(Cl)c1Cl)NC1CCCCC1`, inactive: 119%. The result for `COc1ccc(Nc2ncnc3c2c(-c2ccccc2)cn3-c2ccc(C)c(Cl)c2)cc1OC` reads inactive: 78%; that for `O=C(NCCc1ccc(Cl)cc1)c1ccc(Cn2c(=O)[nH]c3ccccc3c2=O)cc1`, inactive: 119%; that for `CC(=O)c1cccc(Nc2ncnc3c2cnn3C)c1`, inactive: 76%. Next, `CCOc1ccccc1NC(=O)Cc1csc(COc2cccc(C)c2)n1`: inactive: 101%. Take `Cc1cccc(NC(=O)CSC2=Nc3ccccc3C3=NC(CCC(=O)NCc4ccc(F)cc4)C(=O)N23)c1` (stereo unspecified): the survival is inactive: 89%. With `CC(=O)c1ccc(NS(=O)(=O)c2cnc(N)nc2)cc1`, the survival is active: 1%.

In the case of `Cc1ccc(C(=O)CSc2ncn(-c3ccccc3)n2)cc1`, the survival was inactive: 110%.

`CCOc1ccc(CN2C(=O)c3ccccc3Sc3ccc(C(=O)NCCc4ccccc4)cc32)cc1`: the survival is inactive: 72%. With `CC(C)=CCC(C)(C)C1OCCN1C(=O)Nc1ccccc1` (stereo unspecified), the survival was inactive: 126%.

Take `COc1ccc2[nH]cc(CCNC(=O)Nc3cccc(F)c3)c2c1`: the survival was inactive: 90%. The result for `Cc1ccc(-n2c3c(c(=O)[nH]c2=O)C(NS(=O)(=O)c2ccc(C)cc2)(C(F)(F)F)C(=O)N3)cc1` (stereo unspecified) reads inactive: 75%.

As for `COC(=O)c1c(NC(=O)COc2c(C)cccc2C)sc2c1CCCC2`, the survival is active: 6%.

As for `CC1CCN(S(=O)(=O)c2ccc(C(=O)Nc3nc4ccc(F)cc4s3)cc2)CC1`, the survival is inactive: 64%. Next, `O=C(CSc1ncc(-c2ccc(F)cc2)n1Cc1ccco1)OC1CCCCC1`: inactive: 122%; `CCC1C=CCC2C(=O)N(CC(=O)NCCC3=CCCCC3)C(=O)C12` (stereo unspecified): inactive: 108%. Next, `CCOc1ccccc1NC(=O)c1cc2cc(C)ccc2n1C`: inactive: 87%; `COc1cccc(CNC(=O)c2ccc3c(c2)N(C)C(=O)C2CCCCN32)c1` (stereo unspecified): inactive: 68%. Take `COc1ccc(-c2nc(SCC(=O)Nc3ccc4c(c3)OCO4)c(-c3ccccc3)[nH]2)cc1`: the survival was inactive: 73%. Next, `CCc1ccc(NC(=O)C2CCC(CNS(=O)(=O)c3cccs3)CC2)cc1` (stereo unspecified): inactive: 110%; `COc1ccccc1NC(=O)C1=C(C)Nc2nc(-c3ccco3)nn2C1c1ccccc1` (stereo unspecified): inactive: 74%. Next, `Cc1ccccc1NC(=O)c1c(NC(=O)c2ccncc2)sc2c1CCC(C(C)(C)C)C2` (stereo unspecified): inactive: 91%.

As to `CCOC(=O)c1c(NC(=O)c2cc(-c3ccc(Cl)cc3)on2)sc2c1CCCC2`, the survival is inactive: 75%. For `Cc1ccc(CNc2oc(-c3ccc(COc4ccc(Cl)cc4)o3)nc2C#N)cc1`, the survival was inactive: 95%. The result for `COc1ccc(Nc2nc3c(S(=O)(=O)c4ccc(Br)cc4)nnn3c3ccsc23)c(OC)c1` reads inactive: 70%; that for `CC1CCN(c2cc3c(cc2F)c(=O)c(S(=O)(=O)c2ccc(Cl)cc2)cn3C)CC1`, inactive: 71%. Consider `COc1ccccc1OCC(=O)Nc1ccc(S(=O)(=O)N2CCN(C)CC2)cc1`, for which the survival was inactive: 112%. `CCC(=O)N1CCc2cc(Br)cc(S(=O)(=O)N3CCC(C(=O)N(CC)CC)CC3)c21`: the survival was inactive: 90%. The result for `CCn1cc(C(=O)N2CCN(c3cc(Cl)ccc3C)CC2)c(=O)c2cc(S(=O)(=O)N3CCOCC3)ccc21` reads inactive: 86%; that for `CC1CCCN(CC(O)CN)C1` (stereo unspecified), inactive: 104%; that for `CCOc1ccc(-c2cc3nc(C4CCN(C(=O)OC(C)(C)C)CC4)c(C(=O)Nc4ccc(C)c(F)c4)cn3n2)cc1`, inactive: 86%. `CNC(=S)N1C2CCC1CC(NC(=O)NC13CC4CC(CC(C4)C1)C3)C2` (stereo unspecified): the survival is inactive: 118%. On to `Cc1ccccc1OCc1cc(=O)n2c(-c3ccccc3)csc2n1`, for which the survival is inactive: 78%. Next, `CC(C)CCNC(=O)c1cn(C)c2ccc(S(=O)(=O)N3CCCC3)cc2c1=O`: inactive: 130%; `COc1ccc2c(c1)CC(C(=O)Nc1cc(OC)c(OC)c(OC)c1)CO2` (stereo unspecified): inactive: 84%.

`Cc1cccc(CCNC(=O)CCc2c(C)nc3c(c(C)nn3-c3ccccc3)c2C)c1`: the survival was inactive: 63%. The result for `CCOC(=O)c1cc2c(=O)n3ccccc3nc2n(C(C)C)c1=NC(=O)c1c(-c2c(F)cccc2Cl)noc1C` reads inactive: 138%. Next, `CCc1cccc(C)c1NC(=O)c1cc(S(=O)(=O)N2CCN(c3ccccc3)CC2)ccc1F`: inactive: 73%; `COc1ccc(OC)c(CNc2ncnc3onc(C)c23)c1`: inactive: 152%.

Turning to `Clc1ccc(CNc2ncnc3onc(-c4ccc(Cl)cc4)c23)cc1`, the survival was inactive: 110%. The result for `CC1=CCC2C(=O)N(C3CCCCC3)C(=O)C2C1` (stereo unspecified) reads inactive: 122%. The result for `CN(C)c1ccc(C(=O)NCc2ccc3c(c2)CCN3C(=O)c2ccc(Cl)cc2)cc1` reads inactive: 135%; that for `COc1ccc(Cl)cc1NC(=O)CCn1nc(C)cc1C`, inactive: 60%. The result for `CN1C(=O)c2ccccc2Sc2ccc(NC(=O)N3CCN(c4cccc(Cl)c4)CC3)cc21` reads inactive: 83%. Consider `COc1ccc(C(=O)NCc2ccc3c(c2)CCN3C(=O)c2ccc(Cl)cc2)c(OC)c1`, for which the survival is inactive: 78%.

`COc1ccc(OC(=O)c2ccc3snnc3c2)cc1`: the survival is inactive: 106%. As to `COc1cc(OC)cc(C(=O)Nc2cccc(-c3cn4ccsc4n3)c2)c1`, the survival was active: 1%. The result for `N#Cc1cc2cc3c(cc2nc1N1CCCN(C(=O)c2ccccc2)CC1)OCO3` reads inactive: 103%; that for `CCC1CN(C(=O)N2CCC(C(=O)NCCC3=CCCCC3)CC2)c2ccccc2O1` (stereo unspecified), inactive: 90%.
